Laboratory results taken from patent US20100183597.

Molecular target: p70S6 kinase of human origin on the Invitrogen Protoarray Kinase Substrate Identification Kit, P23443
Sequence (P23443 whole entry, looked up): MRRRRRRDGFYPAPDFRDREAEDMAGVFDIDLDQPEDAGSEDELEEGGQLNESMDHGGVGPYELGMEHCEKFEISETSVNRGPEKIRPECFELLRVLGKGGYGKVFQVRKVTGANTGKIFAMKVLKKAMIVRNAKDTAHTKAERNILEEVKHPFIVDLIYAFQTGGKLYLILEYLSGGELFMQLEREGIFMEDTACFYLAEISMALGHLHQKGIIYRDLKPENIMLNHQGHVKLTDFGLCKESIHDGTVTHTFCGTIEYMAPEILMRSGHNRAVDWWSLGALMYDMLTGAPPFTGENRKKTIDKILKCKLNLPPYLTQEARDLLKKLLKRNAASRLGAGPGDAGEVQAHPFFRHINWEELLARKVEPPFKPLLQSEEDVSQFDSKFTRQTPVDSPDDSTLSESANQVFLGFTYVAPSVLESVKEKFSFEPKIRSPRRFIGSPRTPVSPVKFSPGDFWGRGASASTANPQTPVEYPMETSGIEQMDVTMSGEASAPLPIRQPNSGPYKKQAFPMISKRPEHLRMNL

B1: Recombinant mouse GST-Drak2 (protein)
chain: [about 200 residues not written out]MSRRRFDCRSVSGLLTTTPQTPIKTENFNNFYTLTPKELGRGKFAVVRQCISKSTGQEYAAKSLKKRRRGQDCRAEILHEIAVLELARSCPHVINLHEVYENATEIILVLEYAAGGEIFNLCLPELAEMVSENDVIRLIKQILEGVHYLHQNNIVHLDLKPQNILLSSIYPLGDIKIVDFGMSRKIGNASELREIMGTPEYLAPEILNYDPITTATDMWNIGIIAYMLLTHTSPFVGEDNQETYLNISQVNVDYSEEMFSSVSQLATDFIQSLLVKNPEKRPTAESCLSHSWLQQWDFGSLFHPEETSGSSQIQDLTLRSSEEKTSKSSCNGSCGAREDKENIPEDGSLVSKRFRFDDSLPSPHELVPDLFC
- Z-score in the Invitrogen Protoarray Kinase Substrate Identification Kit (phosphorylation of arrayed proteins): Five proteins showed a Z-score above 3, a threshold indicating more that 99.9% confidence. Among the 5 proteins, one was p70S6 kinase.
